Measurements published in the RNAGym collection of RNA variant scans (doi:10.1093/nar/gkz1192).
The source gives no read counts; variants with many changes may rest on few reads.

B1: CPEB3 Ribozyme (parent)
chain: UAACAGGGGGCCACAGCAGAAGCGUUCACGUCGCAGCCCCUGUCAGAUUCUGGUGAAUCUGCGAAUUCUGCUGUAUAUCUC

Variants of: B1
Assay: self-cleavage, relative activity (ratio to wild type); higher = more cleavage; in vitro, sequencing
How it was run: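 Barcoded CPEB3 ribozyme mutants, produced by rounds of error-prone PCR, self-cleaved while being transcribed with T7 RNA polymerase for 5 hours at 37°C and during a subsequent 15 min DNase I step before EDTA was added. Sequencing of template-switched cDNA on Illumina gave cleaved and total reads, and DNA sequencing assigned barcodes to variants. Each variant's relative activity is its cleaved/total read fraction divided by the unmutated ribozyme's fraction, averaged across three batches. A variant needed a minimum of 5 reads.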
For A15U A21G U26A C29U U43C U60A, the self-cleavage was 0.03. Variant A15U A21G U26C A47U U72C has a self-cleavage of 0.05. A15U A21G U31A A56U gave a self-cleavage of 0.27. A15U A21G U31A U72A gave a self-cleavage of 0.09. Variant A15U A21G U43A U51A has a self-cleavage of 0.38. Work on A15U A21G U51C yielded a self-cleavage of 0.31. Work on A15U A21G U72C yielded a self-cleavage of 0.66. A15U A21U U25G A28C G30A C37U showed a self-cleavage of 0.05. A15U A21U U31A A45G U58C showed a self-cleavage of 0.09. Variant A15U A28C A45U A77G has a self-cleavage of 0.09. Work on A15U A28G A35G G61A yielded a self-cleavage of 0.55. A15U A28G A35U C62A G73C gave a self-cleavage of 0.31. For A15U A28G A45U, the self-cleavage was 0.18. For A15U A28G A57G U60A, the self-cleavage was 0.09. A15U A28G G36A U41A A75G gave a self-cleavage of 0.13. A15U A28G G53A showed a self-cleavage of 0.2. A15U A28G U31C U41C showed a self-cleavage of 0.16. Variant A15U A28G U43C A45U U67C has a self-cleavage of 0.13. Variant A15U A28G U48C U66C U72C has a self-cleavage of 0.16. With A15U A28G U60C the self-cleavage was 0.2. Work on A15U A28G U66A G73C yielded a self-cleavage of 0.18. A15U A28G U69A showed a self-cleavage of 0.36. Work on A15U A28U G70A yielded a self-cleavage of 0.11. With A15U A28U U49C U69C A75U U78C the self-cleavage was 0.08. Variant A15U A28U U51C G63U U69C U72A has a self-cleavage of 0.1. For A15U A28U U66C, the self-cleavage was 0.15. With A15U A35G A47U C68U the self-cleavage was 0.95. With A15U A35G A47U U72A the self-cleavage was 0.84. In the case of A15U A35G A64U U67C, the self-cleavage is reported as 0.35. For A15U A35G A75G U78C, the self-cleavage was 1.47. Variant A15U A35G C39A U60C U69A G70C has a self-cleavage of 0.06. A15U A35G C40U A45G U54C U60A U80A gave a self-cleavage of 0.89. For A15U A35G U41C U49C U72A, the self-cleavage was 0.6. Variant A15U A35G U48C has a self-cleavage of 1.04. Variant A15U A35G U48C A57G has a self-cleavage of 1.27. For A15U A35G U49C A77U, the self-cleavage was 0.91. Work on A15U A35G U58C yielded a self-cleavage of 0.83. Work on A15U A35G U66C U72C U80C yielded a self-cleavage of 1.11. With A15U A35G U76C the self-cleavage was 1.28. A15U A35G U78C showed a self-cleavage of 1.27. Variant A15U A35U A45G U67C U72C has a self-cleavage of 0.16. Variant A15U A35U A47U U78A has a self-cleavage of 0.07. Variant A15U A35U A64G U69A has a self-cleavage of 0.15. A15U A35U C50A showed a self-cleavage of 0.19. Variant A15U A35U C59U U69C U78C has a self-cleavage of 0.12. Variant A15U A35U G36A U49A U51A has a self-cleavage of 0.16. In the case of A15U A35U U41A U43A, the self-cleavage is reported as 0.21. In the case of A15U A35U U43C U48C, the self-cleavage is reported as 0.15. For A15U A35U U49A U72A U78C, the self-cleavage was 0.24. A15U A35U U58C U60A gave a self-cleavage of 0.12. Variant A15U A35U U60A A64G has a self-cleavage of 0.11. A15U A35U U72C showed a self-cleavage of 0.25. A15U A45G U48C U66A showed a self-cleavage of 0.11. In the case of A15U A45G U58C A77G, the self-cleavage is reported as 0.1. Work on A15U A45U U48C C71U yielded a self-cleavage of 0.22. A15U A45U U49A U69A gave a self-cleavage of 0.09. With A15U A45U U51A the self-cleavage was 0.35. With A15U A45U U66C A77U the self-cleavage was 0.19. For A15U A45U U78C, the self-cleavage was 0.17. With A15U A47C U72C A75U the self-cleavage was 0.25. In the case of A15U A47G A56G, the self-cleavage is reported as 0.4. Variant A15U A47G U48C U60C has a self-cleavage of 0.23. For A15U A47G U49A U54G, the self-cleavage was 0.16. For A15U A47G U60C, the self-cleavage was 0.17. A15U A47U C50G showed a self-cleavage of 0.17. With A15U A47U U58C the self-cleavage was 0.2. A15U A56C A57G U60A showed a self-cleavage of 0.14. A15U A56G U67C showed a self-cleavage of 0.18. For A15U A56U A65G U67C, the self-cleavage was 0.15. A15U A57C A65G U78C gave a self-cleavage of 0.08. With A15U A57G U80C the self-cleavage was 1.01. For A15U A57U C59A A65G U69A U78C, the self-cleavage was 0.09. With A15U A64G U78C the self-cleavage was 0.57. In the case of A15U A64U U74C, the self-cleavage is reported as 0.23. A15U A65G A75G showed a self-cleavage of 0.23. A15U A65G A77U showed a self-cleavage of 0.1. A15U A65G U78C gave a self-cleavage of 0.24. For A15U C17G C27G C34A C39U U60C, the self-cleavage was 0.07. Work on A15U C17G C34A A64U yielded a self-cleavage of 0.11. Variant A15U C17G U69A has a self-cleavage of 0.29. Variant A15U C17U A47G A75U has a self-cleavage of 0.25. With A15U C17U G24A U25A the self-cleavage was 0.11. In the case of A15U C17U U41C A56G, the self-cleavage is reported as 0.44.
